Measurements from article PMC6919601, “Identification of Plasmodium dipeptidyl aminopeptidase allosteric inhibitors by high throughput screening” (PLoS ONE, 2019).
In all, about 110,000 compounds went through this assay and about 230 (0.21%) showed an effect of 50% or more. The list shows a part of the results.

Molecular target: DPAP1 (Plasmodium falciparum, UniProt Q8IIJ9)
Assay: primary screen, percent inhibition; read by cleavage of a fluorogenic dipeptide substrate; higher = more effect of the substance
Design: species or system P. falciparum D10 trophozoite lysates; single well
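Further: 30 min substrate incubation versus DMSO and 10 µM JCP410 controls.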

Sequence of DPAP1 (Q8IIJ9 whole entry, looked up): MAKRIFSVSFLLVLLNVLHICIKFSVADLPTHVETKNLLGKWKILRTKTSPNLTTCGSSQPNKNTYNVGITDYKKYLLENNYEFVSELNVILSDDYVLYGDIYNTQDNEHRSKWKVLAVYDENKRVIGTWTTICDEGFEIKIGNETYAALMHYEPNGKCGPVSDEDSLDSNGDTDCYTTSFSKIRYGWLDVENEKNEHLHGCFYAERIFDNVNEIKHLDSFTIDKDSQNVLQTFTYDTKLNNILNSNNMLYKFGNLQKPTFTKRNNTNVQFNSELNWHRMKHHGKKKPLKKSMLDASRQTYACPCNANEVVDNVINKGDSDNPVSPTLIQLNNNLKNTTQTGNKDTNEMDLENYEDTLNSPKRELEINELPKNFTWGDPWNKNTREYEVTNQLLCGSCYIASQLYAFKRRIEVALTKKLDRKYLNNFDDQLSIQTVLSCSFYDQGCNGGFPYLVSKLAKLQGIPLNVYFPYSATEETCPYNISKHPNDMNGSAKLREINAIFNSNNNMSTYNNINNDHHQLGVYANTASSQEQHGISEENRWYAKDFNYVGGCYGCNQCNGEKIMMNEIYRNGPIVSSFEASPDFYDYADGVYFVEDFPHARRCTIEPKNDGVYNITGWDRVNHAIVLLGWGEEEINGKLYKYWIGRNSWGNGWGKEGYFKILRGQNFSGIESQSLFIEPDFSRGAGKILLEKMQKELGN

| Compound | % Inhibition @ 10 uM [%] |
| --- | --- |
| CC/N=C1\SC(CC(=O)Nc2ccccc2OC(F)F)C(=O)N1CC (centres unmarked) | -2.85 |
| CN(Cc1ccco1)S(=O)(=O)c1csc(C(N)=O)c1 | 2.75 |
| CN1CCN(c2ccc(NC(=O)C3CCCCC3C(=O)O)cc2)CC1 (centres unmarked) | -4.63 |
| Cc1ccc(C(=O)NCCCn2ccnc2)cn1 | -5.85 |
| N#CC1=C(N)Oc2c(oc(CO)cc2=O)C1c1ccccc1Cl (centres unmarked) | 0.746 |
| CCc1ccc(N2CC(C(=O)NCc3ccccc3)CC2=O)cc1 (centres unmarked) | 5.04 |
| Cc1cc(C)nc(NS(=O)(=O)c2ccc(NC(=S)NC(=O)c3ccco3)cc2)n1 | 1.7 |
| O=S(=O)(Nc1ccccc1O)c1ccccc1 | -3.72 |
| CCn1c(C)c(C)c2cc(C(=O)NCc3cccnc3)ccc21 | -2.83 |
| Cc1ccc(CNC(=O)CSCc2cccc(F)c2)cc1 | -0.406 |
| c1ccc2c(c1)ncn2Cc1nnc2sc(-c3ccc4c(c3)OCO4)nn12 | 24.8 |
| CCOc1cc(C2CC(=O)Nc3nc(SC)nc(O)c32)ccc1O (centres unmarked) | 3.84 |
| CC1(C)CC(=O)C2=C(C1)OC1=C(C(=O)CC(C)(C)C1)C2c1cccc(OCC(=O)N2CCCCC2)c1 | 2.69 |
| Cc1ccccc1OCC(=O)Nc1ccc(S(=O)(=O)NC(C)(C)C)cc1 | -0.473 |
| Cc1cc(C)n(-c2cc(-c3ccccc3)nc(N)n2)n1 | 1.04 |
| CC(O)CSc1nc2c(c(=O)n(C)c(=O)n2C)n1CCCc1ccccc1 (centres unmarked) | 6.7 |
| Cc1cc2nc(NCCO)n(CCOc3ccccc3)c2cc1C | -8.72 |
| O=[N+]([O-])c1cc(Br)cc2c1[nH]c1ccc(Br)cc12 | -4.87 |
| COCCCNC(=O)c1ccc(CS(=O)c2cccc(Cl)c2)o1 (centres unmarked) | 5.66 |
| Cc1cc(Cl)ccc1OCC(=O)NCc1ccccn1 | 0.389 |
| Cc1nc(Cl)sc1C(=O)NC(C)c1ccc(Cl)cc1 (centres unmarked) | -3.71 |
| CC(C)(C)c1[nH]nc2c1C(c1ccc3ccccc3c1)C(C#N)=C(N)O2 (centres unmarked) | -0.661 |
| O=C(O)/C=C/C(=O)Nc1cccc(F)c1 | 4.22 |
| Cc1nc2c(-c3ccc(F)cc3)c(C)nn2c(C)c1CCC(=O)NC1CCN(Cc2ccccc2)CC1 | -0.465 |
| O=C(O)C(Cc1ccccc1)NS(=O)(=O)c1ccc2nc(O)c(O)nc2c1 (centres unmarked) | 0.0539 |
| O=C(CCN1C(=O)c2cccc3cccc(c23)C1=O)NC1CCCCC1 | 44.1 |

| Compound | % Inhibition @ 10 uM [%] |
| --- | --- |
| COc1cc(NC(=O)c2ccc([N+](=O)[O-])cc2)c(OC)cc1NC(C)=O | 2.54 |
| C=CCn1c(C(C)NC(=O)CC)nc2ccccc21 (centres unmarked) | 3.49 |
| CCOc1ccc(-c2cc(CCCC(=O)NCCC(C)C)no2)cc1 | -3.45 |
| COc1cccc(CNCCO)c1OCc1ccc(F)cc1 | -4.97 |
| COc1cccc(Cn2c(C)c(CNCCC3=CCCCC3)c(C(=O)O)c2C)c1 | 14.1 |
| COc1cc2nc(NCCc3ccc(Cl)cc3)n3nc(-c4cccnc4)nc3c2cc1OC | -2.42 |
| ONC1=NC(/C=C/c2ccccc2)Nc2ccccc21 (centres unmarked) | 2.4 |
| CCCN(CCO)Cc1c(Cl)cccc1Cl | 4.28 |
| CCC1CCCCN1CCCNC(=O)c1cc2c(s1)CSC2 (centres unmarked) | -3.1 |
| Nc1nonc1-c1noc(-c2cc(Br)ccc2OCc2ccccc2Cl)n1 | -2.1 |
| Nc1nc(-c2ccc([N+](=O)[O-])cc2)c(C(=O)Nc2ccccc2Cl)s1 | 4.42 |
| Cc1ccc(C(=O)N/C(=C\c2ccco2)C(=O)NCC2CCCO2)cc1C (centres unmarked) | 5.67 |
| CCn1c(C(=O)O)c(CNCc2ccc3c(c2)OCO3)c2ccc(C)cc21 | -9.17 |
| CCc1ccccc1NC(=O)C1CCN(S(C)(=O)=O)CC1 | -1.21 |
| Cn1cnnc1SCC(=O)n1c2c(c3ccccc31)CCCC2 | 5.23 |
| c1ccc2c(c1)n(CCN1CCCCC1)c1ncnn21 | 1.72 |
| Cc1cc(Cl)ccc1NC(=O)CN1CCN(CC/N=C/C2=C(O)CC(C)(C)CC2=O)CC1 | -4.76 |
| O=C1/C(=C\c2ccc(Br)cc2)S(=O)(=O)C(c2ccccc2)N1c1ccccc1 (centres unmarked) | -2.77 |
| CCC1=NN(C(=O)Cc2ccc(OC)c(OC)c2)C(O)(C(F)(F)F)C1 (centres unmarked) | -2.94 |
| O=C(NCCCN1CCCC1=O)c1cc2c(s1)-c1ccccc1S(=O)(=O)C2 | -10 |
| COc1ccc(-c2cc(-c3ccccc3)c(C#N)c(S(C)=O)n2)cc1 (centres unmarked) | 2.95 |
| Oc1nc(Nc2ccc3ccccc3c2)nc(N2CCOCC2)n1 | -5.52 |
| Cc1cc(NC(=O)c2ccc(COc3ccc(Cl)c(C)c3)o2)no1 | 0.0504 |
| O=C(COc1cccc(Cl)c1)Nc1ccc2ccccc2c1 | 0.145 |
| COc1cc(NC(=O)Cc2ccc(Cl)cc2)ccc1NC(=O)c1ccco1 | -5.7 |
| CCOCCCNC(=O)C1CCN(S(=O)(=O)c2c(C)noc2/C=C\c2ccc(OC)cc2)CC1 | -4.96 |

| Compound | % Inhibition @ 10 uM [%] |
| --- | --- |
| Cc1ccccc1S(=O)(=O)Cc1ccc(C(=O)NC(C)c2ccccc2)o1 (centres unmarked) | 0.458 |
| Cc1ccc2c(c1)C(SCC(=O)NCCc1ccccc1)CC1(CCCC1)O2 (centres unmarked) | -0.971 |
| CCOc1cc(CNc2ccccc2)ccc1OC | -0.48 |
| Cc1cc(-c2ccc(C)c(S(=O)(=O)N3CCCCC3C)c2)on1 (centres unmarked) | -8.89 |
| O=C(Nc1ccc(S(=O)(=O)N2CCCCC2)cc1)c1ccc(Cl)cc1 | 5.66 |
| OCc1cnc(O)nc1O | 1.91 |
| Cc1cccc(NC(=O)[C@@H]2C3C=CC(C3)[C@@H]2C(=O)O)c1C (some centres unmarked) | -8.21 |
| CN1CCN(C(=O)COc2ccccc2Cl)CC1 | 0.727 |
| COc1cc(OC)cc(C2=N/C(=C\c3ccc(C)o3)C(=O)O2)c1 | 1.81 |
| CCN(CC)c1ccc(C2C3=C(O)CCCC3=NC(C)=C2C(=O)Nc2c(F)cccc2F)cc1 (centres unmarked) | -5.72 |
| Cc1ccc(C2=NS(=O)(=O)N(C)C(C(=O)N3CC4(C)CC3CC(C)(C)C4)=C2)cc1 (centres unmarked) | 3.92 |
| c1ccc(-c2cn3ccsc3n2)cc1 | 1.54 |
| Oc1ccc(C2=Nn3c(nnc3-c3ccccc3Br)SC2)cc1O | -0.112 |
| COC(=O)c1ccc(-n2c(=O)c3cc4c(=O)n(-c5ccc(C(=O)OC)cc5)c(=O)c4cc3c2=O)cc1 | -3.16 |
| Cc1ccc2c(c1)c1c3n2CCN(CC(O)c2ccc(Br)cc2)C3CCC1 (centres unmarked) | 1.08 |
| CN1CCN(C2=NC(=O)/C(=C/c3ccc(Cl)c(Cl)c3)S2)CC1 | 7.76 |
| C=CCn1c(=N)n(CCCOc2ccccc2)c2ccccc21 | -4.39 |
| CCC(C)NC(=O)c1ccc2c(SCC(=O)O)c3c(nc2c1)CCCC3 (centres unmarked) | -1.84 |
| Cc1c(C(=O)N2CCNCC2)oc2ccccc12 | -0.671 |
| COc1ccc(N2CCN(C(=O)CC#N)CC2)cc1 | -0.641 |
| COc1ccccc1/C=c1\sc2nc(-c3ccccc3OC)nn2c1=O | 0.561 |
| COc1cc(C=O)ccc1Oc1nc2ccccc2n2cnnc12 | 1.49 |
| CC(C)C(=O)n1nc(-c2ccccc2)nc1NCc1ccc(F)cc1 | -2.91 |
| Cc1c(NC(=O)c2ccc(C)c3ccccc23)cccc1-c1nc2ncccc2o1 | 0.0538 |
| CCCN(CCC)C(=O)c1cc(-c2ccco2)[nH]n1 | 3.97 |
| O=S(=O)(c1ccccc1F)N1CCN(c2ccc(Cl)c(Cl)c2)CC1 | -2.22 |

| Compound | % Inhibition @ 10 uM [%] |
| --- | --- |
| CC(=O)COc1ccccc1OCC(=O)O | -0.0267 |
| Cc1ccc(C(=O)O)cc1S(=O)(=O)N1CCCCC1 | 4.12 |
| CCOC(=O)c1c(C)c(-c2ccccc2)n(CC(=O)Nc2nnc(SCC)s2)c1C | 4.88 |
| CCOC(=O)/C=C(\C)N1N=C2c3cc(OC)ccc3CCC2C1c1ccc(F)cc1 (centres unmarked) | 6.33 |
| COc1cc(N(CC(=O)N2CCCCC2)S(=O)(=O)c2ccccc2)cc(OC)c1OC | 0.231 |
| COc1ccc(CN2CCN(Cc3ccccc3)CC2)cc1Br | 1.34 |
| COc1ccccc1NC(=O)c1c(C)nc(Nc2nc3ccccc3o2)nc1C | -6.66 |
| CCC(C)NC(=O)CN1CCN(Cc2cccc(C)c2)C1=O (centres unmarked) | -4.76 |
| O=C(Nc1cccc(F)c1)c1cc(-c2ccco2)nc2ccccc12 | -1.74 |
| O=C(c1ccco1)N1CCN(C(=O)C2CC(c3ccccc3F)=NO2)CC1 (centres unmarked) | 7.39 |
| CC(Oc1ccccc1F)C(=O)Nc1sc2c(c1C(=O)NCc1ccco1)CCCC2 (centres unmarked) | 1.57 |
| Cc1cc(C)c2nc3s/c(=C\c4ccco4)c(=O)n3c2c1 | -3.38 |
| CCC(C)C(=O)NCCc1ccc(S(N)(=O)=O)cc1 (centres unmarked) | 2.95 |
| Cc1ccccc1S(=O)Cc1ccc(C(=O)N2CCN(C3CCCCC3)CC2)o1 (centres unmarked) | 4.14 |
| O=C(CC1NC2CCCCC2NC1=O)Nc1ccc2c(c1)OCCO2 (centres unmarked) | 0.843 |
| COc1ccc(NC2=C(Cl)C(=O)N(Cc3ccccc3)C2=O)cc1 | -0.305 |
| CC1CC(C)CN(S(=O)(=O)N2CCCC(C(=O)NC(C)c3ccccc3)C2)C1 (centres unmarked) | 2.18 |
| CN1C(=O)C2(C(C#N)=C(N)OC3=C2C(=O)CCC3)c2ccccc21 (centres unmarked) | -0.413 |
| O=C(CCN1N=C(c2ccccc2)CCC1=O)NCCCN1CCCC1=O | -2.72 |
| CCn1c(C(=O)NCc2cccnc2)cc2oc3ccccc3c21 | -2.17 |
| Cc1ccc(Oc2nc3c(C)cccn3c(=O)c2/C=C(\C#N)C(=O)N2CCOCC2)cc1 | 3.63 |
| Cc1nn(CC(=O)NC2CCCCCC2)c(=O)c2cccn12 | -9.69 |
| N#Cc1c(O)nc2c(oc3ccccc32)c1-c1ccccc1 | 6.17 |
